# Source: the supplement of paper PMC8728848
# This is one part of the list.
# Tests used:
# Experiment in all cases: glycan array binding signal (z-score within array); higher = stronger binding
# Conditions in all cases: glycan notation: IUPAC condensed, linker removed
# [1] = target: Gal3S(b1-4)[Fuc(a1-3)]GlcNAc
# Method in brief: (§1)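 Arrays were curated from the Consortium for Functional Glycomics database, 3228 in total, and kept only where the protein sequence was available. Binding is expressed as a within-array Z-score. This score was averaged across arrays of the same protein sequence at different concentrations or buffers and across linkers, and negative values can be read as non-binding.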
# [2] = target: Gal3S(b1-4)[Fuc(a1-3)]GlcNAc6S
# Method in brief: as §1
# [3] = target: Gal3S4S(b1-4)GlcNAc
# Method in brief: as §1
# [4] = target: Gal3S6S(b1-4)GlcNAc
# Method in brief: as §1
# [5] = target: Gal3S6S(b1-4)GlcNAc6S
# Method in brief: as §1
# [6] = target: Gal4S(b1-4)GlcNAc
# Method in brief: as §1
# [7] = target: Gal4S6S(b1-4)GlcNAc
# Method in brief: as §1
# [8] = target: Gal6P(b1-4)GlcNAc
# Method in brief: as §1
# [9] = target: Gal6S(b1-3)GlcNAc
# Method in brief: as §1
# [10] = target: Gal6S(b1-3)GlcNAc6S
# Method in brief: as §1
# [11] = target: Gal6S(b1-4)Glc
# Method in brief: as §1
# [12] = target: Gal6S(b1-4)Glc6S
# Method in brief: as §1
# [13] = target: Gal6S(b1-4)GlcNAc
# Method in brief: as §1
# [14] = target: Gal6S(b1-4)GlcNAc6S
# Method in brief: as §1
# [15] = target: GalNAc(a1-3)Gal
# Method in brief: as §1
# [16] = target: GalNAc(a1-3)GalNAc
# Method in brief: as §1
# [17] = target: GalNAc(a1-3)GalNAc(a1-3)Gal(a1-4)Gal(b1-4)GlcNAc
# Method in brief: as §1
# [18] = target: GalNAc(a1-3)GalNAc(b1-3)Gal(a1-4)Gal(b1-4)Glc
# Method in brief: as §1
# [19] = target: GalNAc(b1-3)Gal
# Method in brief: as §1
# [20] = target: GalNAc(b1-3)Gal(a1-4)Gal(b1-4)GlcNAc
# Method in brief: as §1
# [21] = target: GalNAc(b1-3)Gal(a1-4)Gal(b1-4)GlcNAc(b1-3)Gal(b1-4)Glc
# Method in brief: as §1
# [22] = target: GalNAc(b1-3)Gal(a1-6)Gal(b1-4)Glc
# Method in brief: as §1
# [23] = target: GalNAc(b1-3)GalNAc
# Method in brief: as §1
# [24] = target: GalNAc(b1-3)GlcNAc
# Method in brief: as §1
# [25] = target: GalNAc(b1-4)Gal(b1-4)Glc
# Method in brief: as §1
# [26] = target: GalNAc(b1-4)GlcNAc
# Method in brief: as §1
# [27] = target: GalNAc(b1-4)GlcNAc(b1-2)Man
# Method in brief: as §1
# [28] = target: GalNAc(b1-4)GlcNAc(b1-2)Man(a1-3)[GalNAc(b1-4)GlcNAc(b1-2)Man(a1-6)]Man(b1-4)GlcNAc(b1-4)GlcNAc
# Method in brief: as §1
# [29] = target: GalNAc(b1-4)GlcNAc(b1-3)GalNAc(b1-4)GlcNAc
# Method in brief: as §1
# [30] = target: GalNAc(b1-4)GlcNAc6S
# Method in brief: as §1
# [31] = target: GalNAc(b1-6)GalNAc
# Method in brief: as §1
# [32] = target: GalNAc3S(b1-4)GlcNAc
# Method in brief: as §1
# [33] = target: GalNAc3S(b1-4)GlcNAc3S
# Method in brief: as §1
# [34] = target: GalNAc3S(b1-4)[Fuc(a1-3)]GlcNAc
# Method in brief: as §1
# [35] = target: GalNAc4S6S(b1-4)GlcNAc
# Method in brief: as §1
# [36] = target: GalNAc6S(b1-4)GlcNAc
# Method in brief: as §1
# [37] = target: Glc(a1-4)Glc
# Method in brief: as §1
# [38] = target: Glc(a1-4)Glc(a1-4)Glc(a1-4)Glc
# Method in brief: as §1
# [39] = target: Glc(a1-6)Glc(a1-6)Glc
# Method in brief: as §1
# [40] = target: Glc(a1-6)Glc(a1-6)Glc(a1-6)Glc
# Method in brief: as §1
# [41] = target: Glc(b1-4)Glc
# Method in brief: as §1
# [42] = target: Glc(b1-6)Glc
# Method in brief: as §1
# [43] = target: GlcA(b1-3)Gal
# Method in brief: as §1
# [44] = target: GlcA(b1-3)GlcNAc
# Method in brief: as §1
# [45] = target: GlcA(b1-6)Gal
# Method in brief: as §1
binder,measurement,setting,value
"Gal 2 (Homo sapiens), P05162 (protein) MTGELEVKNMDMKPGSTLKITGSIADGTDGFVINLGQGTDKLNLHFNPRFSESTIVCNSLDGSNWGQEQREDHLCFSPGSEVKFTVTFESDKFKVKLPDGHELTFPNRLGHSHLSYLSVRGGFNMSSFKLKE",glycan array binding signal (z-score),[1],-0.194
same,glycan array binding signal (z-score),[2],-0.003
same,glycan array binding signal (z-score),[3],-0.168
same,glycan array binding signal (z-score),[4],-0.257
same,glycan array binding signal (z-score),[5],-0.062
same,glycan array binding signal (z-score),[6],-0.259
same,glycan array binding signal (z-score),[7],-0.189
same,glycan array binding signal (z-score),[8],-0.085
same,glycan array binding signal (z-score),[9],-0.032
same,glycan array binding signal (z-score),[10],-0.174
same,glycan array binding signal (z-score),[11],-0.19
same,glycan array binding signal (z-score),[12],-0.128
same,glycan array binding signal (z-score),[13],-0.227
same,glycan array binding signal (z-score),[14],-0.21
same,glycan array binding signal (z-score),[15],-0.281
same,glycan array binding signal (z-score),[16],-0.29
same,glycan array binding signal (z-score),[17],-0.134
same,glycan array binding signal (z-score),[18],-0.177
same,glycan array binding signal (z-score),[19],-0.232
same,glycan array binding signal (z-score),[20],-0.258
same,glycan array binding signal (z-score),[21],-0.235
same,glycan array binding signal (z-score),[22],-0.195
same,glycan array binding signal (z-score),[23],-0.239
same,glycan array binding signal (z-score),[24],-0.102
same,glycan array binding signal (z-score),[25],-0.174
same,glycan array binding signal (z-score),[26],-0.273
same,glycan array binding signal (z-score),[27],0.044
same,glycan array binding signal (z-score),[28],-0.127
same,glycan array binding signal (z-score),[29],-0.104
same,glycan array binding signal (z-score),[30],-0.309
same,glycan array binding signal (z-score),[31],-0.103
same,glycan array binding signal (z-score),[32],-0.172
same,glycan array binding signal (z-score),[33],-0.139
same,glycan array binding signal (z-score),[34],-0.275
same,glycan array binding signal (z-score),[35],-0.218
same,glycan array binding signal (z-score),[36],-0.095
same,glycan array binding signal (z-score),[37],-0.245
same,glycan array binding signal (z-score),[38],-0.213
same,glycan array binding signal (z-score),[39],-0.2
same,glycan array binding signal (z-score),[40],-0.103
same,glycan array binding signal (z-score),[41],-0.269
same,glycan array binding signal (z-score),[42],-0.227
same,glycan array binding signal (z-score),[43],-0.242
same,glycan array binding signal (z-score),[44],-0.231
same,glycan array binding signal (z-score),[45],-0.245
